The source of these data is PMC12136788.

T1: UNK ZnF1-3 (human, UniProt Q9C0B0 31-174)
T1 sequence: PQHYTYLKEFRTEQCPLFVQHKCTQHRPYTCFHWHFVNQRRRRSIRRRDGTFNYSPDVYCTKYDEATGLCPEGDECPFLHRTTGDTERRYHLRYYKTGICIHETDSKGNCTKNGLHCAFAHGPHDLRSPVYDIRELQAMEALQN

B1: chr8:30655213:30655214:-_ENSG00000104695_ENST00000221138|hu_mus|FALSE|FALSE (ssRNA)
RNA: GGGAGUUCUACAGUCCGACGAUCCACGUUGGCAUUUCCAUACUUCCGUAGGCACUCAUCAUAAAAGCCAUACACUUGUGUGAUCUGCCGGCUUUCGUGAUUUCCUCGCAAUAUUGUGAUGCGCUCUGGAUAGCGCACCUUUAACAACAGAGGAUUGAGCAUCA
B2: chr20:17587764:17587765:+_ENSG00000125868_ENST00000474024|hu_mus|FALSE|FALSE (ssRNA)
RNA: GGGAGUUCUACAGUCCGACGAUCGCACUGACUGGCGGUCUACACAGGGGAUCCUUCAAAGGCUACAAUUAAGGAGCCACCUAGCUUUUCAGCAAUACAGGUCCGAUUGAGGUCUUCUGGCCCAUUUGCUUGAUACUCAUGCUUCAACAGAGGAUUGAGCAUCA
B3: chr11:102151369:102151370:-_ENSMUSG00000059995_ENSMUST00000137387|mus_mus|FALSE|FALSE (ssRNA)
RNA: GGGAGUUCUACAGUCCGACGAUCUAUGCUUGGUAGUGGGGCCGGCCCGAGAACCUUCUUUCCCCCUCUAGCGAGAAGGCUAUGGAGGGCCAAGGACAGAGGGGCCCAGGCUCCAAGGAUUUAUUCUAACUCCUGCCAAAAUUACAACAGAGGAUUGAGCAUCA
B4: chr7:138189096:138189097:+_ENSG00000122779_ENST00000415680|hu_mus|FALSE|FALSE (ssRNA)
RNA: GGGAGUUCUACAGUCCGACGAUCAGACUUUUCUACUGUACUACUAGGAACUUCAGUGGUGUCCUUCACAAAAAAGUUGUCUAUGAUGUGUCUCUCAGCACACUCUUGACUGCAAACUGGGCAUCGAAUGACUCCAACUUGGGUCAACAGAGGAUUGAGCAUCA
B5: chr13:51246309:51246310:+_ENSMUSG00000021395_ENSMUST00000095797|mus_mus|FALSE|FALSE (ssRNA)
RNA: GGGAGUUCUACAGUCCGACGAUCUGCCUAUGAGAAAACACUGAGCACACAACGAUUGCAGCCAAGGACAGAACUGAGGUACUAUGUUCACAUGGUGAGCAGUUGUGACCACCCAGCAGUGUAAGGUGGUCAGCCUCUGUGAAACAACAGAGGAUUGAGCAUCA
B6: chr14:76904540:76904541:+_ENSMUSG00000022010_ENSMUST00000022587|mus_hu|FALSE|FALSE (ssRNA)
RNA: GGGAGUUCUACAGUCCGACGAUCAAAGAAAUUGAAAAAUGUCUCAGUUGGUAAACUCCUAGAUCCAUCGCCACUGGUCUACACCAUUGGGAUUUCAUGCAAUUGCAGCCAAAAACACCCUCGUGGAAAAAAAGAGGGAACACCCAACAGAGGAUUGAGCAUCA
B7: chr5:128440902:128440903:+_ENSG00000066583_ENST00000173527|hu_hu|FALSE|FALSE (ssRNA)
RNA: GGGAGUUCUACAGUCCGACGAUCUUGAACCGUGCUCCCAAGACCUUUAGGGUAUUGUUCUGUUACAAUAACAGGAAUUCCUAAAAUCCGGGCCCCUUGCAACAAUCUCUGUCCCACGCUAAUAAUAUCCCCAAAAUACUUGAUCAACAGAGGAUUGAGCAUCA
B8: chr17:21098601:21098602:+_ENSMUSG00000007564_ENSMUST00000007708|mus_mus|motif|central (ssRNA)
RNA: GGGAGUUCUACAGUCCGACGAUCGGCUAAGACCUUGGGGAUGAUAGUGGCAUGGGCCCACUCCUUCCCGAACUUCUCGGCGGAUUUCUUAAGGUUGCUGGUGGCAGCCUCACGGAUAGCAUAGACAUGAUCCACUAGCCAGGCCAACAGAGGAUUGAGCAUCA
B9: chr2:129036499:129036500:+_ENSMUSG00000027397_ENSMUST00000028880|mus_hu|FALSE|FALSE (ssRNA)
RNA: GGGAGUUCUACAGUCCGACGAUCGAAGAUUGCCAUGAUGGCAGCACUGAUAACUCCAGAAAUGGGGACUGUGACAAACCAGGCCAUAAAAAUGUUACGAAAGAGACGCCAGUCAACAGCCUUCUUGGACCGGAGCCAGCCAACCAACAGAGGAUUGAGCAUCA
B10: chr3:103125490:103125491:+_ENSMUSG00000033014_ENSMUST00000106860|mus_mus|FALSE|FALSE (ssRNA)
RNA: GGGAGUUCUACAGUCCGACGAUCAAGAAGCUUAGCCAACAGAUUUUCAAUUGCACCUUUCUGAUUUUGAAAAGCCUCUUCUAAAAACUGAUACCUAUGUUCUUUGUGCUCCAAAAGUUGACAGUCUCUACACGUCAAUCUAUCCAACAGAGGAUUGAGCAUCA
B11: chr7:140404665:140404666:+_ENSG00000090266_ENST00000247866|hu_hu|hu_hu_hu_mus_False|88_108 (ssRNA)
RNA: GGGAGUUCUACAGUCCGACGAUCUGCGUACAGAGUGCCAGAGAGUUUACACCUUCAGUCCUCGUCAUCAGGAGGGAUUCCCAGUUCUUCAUCUGUCCACUGUGAAGGAUCUGGAUAUGAAAAGUGACCCAGCACAGCAUCCGACAACAGAGGAUUGAGCAUCA
B12: chr11:72025555:72025556:-_ENSMUSG00000020801_ENSMUST00000021157|mus_mus|FALSE|FALSE (ssRNA)
RNA: GGGAGUUCUACAGUCCGACGAUCCGCACACUGCGCAUUCACCAGCUCCUUGCGAAAGUGCUCAUACUGGAGCAGCUCUAACAUAUGUAAGCACUGAGGGUACUUUAGAUAUUUGGCAUAUUCUGGUUCUUUCCAGUAAAGCAACAACAGAGGAUUGAGCAUCA
B13: 109357056_109363205_1080_CDS_ENSG00000153201_ENST00000283195|human|control|control (ssRNA)
RNA: GGGAGUUCUACAGUCCGACGAUCAGCUUCACCUUUUAUUAAUUUAAUCUUUGGUCUUGGAACCUGAAAUGCUAUGAGAUAGCACAAUGCAGCCAGCUCAGAAAGAGCUCGCCAUUGAACAUUACUACUAUGCUGACCCAUCUUCAACAGAGGAUUGAGCAUCA
B14: 108357121_108366956_3200_CDS_ENSG00000108018_ENST00000263054|human|control|control (ssRNA)
RNA: GGGAGUUCUACAGUCCGACGAUCAGCAGCAUGGACAAGGACUCGGACUCCUGGCUUCAGCUCGAAGUGUACUGAGUUUUGGUUGAGCGUGUGGAUCAGCAAUUCUGAUAUCUGCUCCAGGUCAUCAGUUGACCUUUUGUUUUCCAACAGAGGAUUGAGCAUCA
B15: chr2:232320318:232320319:-_ENSG00000115053_ENST00000322723|hu_hu|hu_hu_hu_mus_True|68_108 (ssRNA)
RNA: GGGAGUUCUACAGUCCGACGAUCACUGUUGAAGUCUACAAAACCAAACCCUUUGGAAGAACCAGUUUCCCGGUCAGUGACUAUUCUUGCACGAACAGAGCCCUCAAAUGAUUCUUUUAAGGUCUCUUCAGUGGUAUCCUCAGACAACAGAGGAUUGAGCAUCA
B16: 76978581_76983199_1410_CDS_ENSMUSG00000036435_ENSMUST00000113493|mouse|control|control (ssRNA)
RNA: GGGAGUUCUACAGUCCGACGAUCCAUCUUCAUCUUUGCAACUUCAAAGAAAUCUUUGAUUUCUCUUUCAUAUAGUCGGGAUAAAUAAUCCAUGUAAUUCUUUGUUAGUCCCUCGUAUUUUCCAUAGUCUGUACUCUUUAGCCACAACAGAGGAUUGAGCAUCA
B17: chr14:66974463:66974464:+_ENSMUSG00000022044_ENSMUST00000074523|mus_hu|mus_mus_mus_hu_False|38_88 (ssRNA)
RNA: GGGAGUUCUACAGUCCGACGAUCUUGUAGGACGACUUAUUCAGGGGAUCAGACAAGAAGCAGGAGCAGAACAAGGACACCAGCGGGAGCUCCUUCAUCUUCUCCUUGUAGGCAGCAAGGGUCAUGUUUCUGGGAUCUGGUGGCCAACAGAGGAUUGAGCAUCA
B18: chr1:39494447:39494448:+_ENSG00000168653_ENST00000372967|hu_mus|hu_hu_hu_mus_False|1_98 (ssRNA)
RNA: GGGAGUUCUACAGUCCGACGAUCGCACCGAGCGGCGAUCUUGUAGGGCUGUUCUGCGCUUAGGAACAUAAAGUGCCGGUCCAGGCUGAUGCCCAGCUUUUUCUGUAUGUCAAGGAAAGGCAUGGCUCUGCAGUGCCCCCUUGACAACAGAGGAUUGAGCAUCA
B19: chr1:135503150:135503151:-_ENSMUSG00000090553_ENSMUST00000166915|mus_mus|motif|central (ssRNA)
RNA: GGGAGUUCUACAGUCCGACGAUCUUCUGCAUCAUCUAAUACGAGGUUCAUGUACUCAUCAAAGCCAAUAAUACAACCUUCGGUCCGCAUAUUCACUUGUUCAUACAGCCACACCUGAAUUCGAGAUCUAUUUUGCAAGUAUCUCAACAGAGGAUUGAGCAUCA
B20: chr2:48026839:48026840:+_ENSG00000116062_ENST00000540021|hu_hu|hu_hu_hu_mus_False|48_68 (ssRNA)
RNA: GGGAGUUCUACAGUCCGACGAUCAUAGUGAGCCACUAGCGUCCUAAAUCUGGAACAGUGGCGGUCAUCUGAAAACUGGCCGAUGAAAAACUUUCCCAGUGAAGUGUCCACAAAGCAAACACCAUACACACGAGUGUGACCAGACAACAGAGGAUUGAGCAUCA
B21: 107984585_107984705_1084_3pUTR_ENSMUSG00000029461_ENSMUST00000049053|mouse|control|control (ssRNA)
RNA: GGGAGUUCUACAGUCCGACGAUCUAGAAAAAGCAGCUUUUACAAAAACCAAAAAUAAAAAUCAAAACCAUUAAAGAUGCAUAAAGUGACCCUUGCACUUCCGUUGUCUCUUCUUGCAAUAGAGGUGGUGCUGCUAGGAGACUGCAACAGAGGAUUGAGCAUCA
B22: chr14:102551731:102551732:-_ENSG00000080824_ENST00000216281|hu_mus|FALSE|FALSE (ssRNA)
RNA: GGGAGUUCUACAGUCCGACGAUCCACGAUCUCCUUUAUUCUCCUUUCCUCCAAAUACUCUGUUUGGUCUUCUUUCAGAUGCAAGAUAACCUUUGUUCCACGACCCAUUGGUUCACCUGUGUCAGUCCUCACUGUGAAGGAUCCCAACAGAGGAUUGAGCAUCA

The list shows a part of the results.

The target of this assay is T1, UNK ZnF1-3. The experiment in a line: nsRBNS (natural sequence RNA bind-n-seq); RBNS binding buffer (assumed for nsRBNS): 25 mM Tris pH 7.5, 150 mM KCl, 3 mM MgCl2, 0.01% Triton X-100, 500 ug/ml BSA, 20 U/ml SUPERase-In, 4 C; UNK is unkempt and MSI1 is Musashi-1; names of the RNAs are library labels; protein concentration not given here; high values mean tight binding.
As for B1, the binding signal turned out to be 0.467 enrichment R.
The same measure for B2: 0.906 enrichment R; for B3: 0.46 enrichment R.
The same measure for B4: 0.977 enrichment R; for B5: 0.849 enrichment R.
The same measure for B6: 1.61 enrichment R; for B7: 1.03 enrichment R; for B8: 1.07 enrichment R.
B9 came in with a binding signal of 1.81 enrichment R.
The same measure for B10: 1.12 enrichment R; for B11: 1.08 enrichment R; for B12: 0.747 enrichment R.
In turn, B13 had a binding signal of 1.9 enrichment R.
For B14 the value was 0.847 enrichment R; for B15, 0.504 enrichment R.
The same measure for B16: 0.343 enrichment R; for B17: 1.69 enrichment R; for B18: 0.692 enrichment R.
For B19 the value was 1.03 enrichment R.
Turning to B20, the binding signal is 1.12 enrichment R.
B21 yielded a binding signal of 1.58 enrichment R.
For B22 the value was 0.523 enrichment R.
